From the supplement of paper PMC12632987 come the findings set out here.

B1: LC3A_28_1134 (protein)
chain: SAAVEAAKAQLDKDAEADKDKEEVYLTVNVSGTITVEEAKEIMDYVEEIVEKFKDKKKIYVVVNANEPISQEVLDTILDGGERLEKKFPNVSVIVALPEG
B2: LC3A_3_1615 (protein)
chain: LEELLKEAIEKLKEAGKPEEVLELLKEVVELLKEKGYEEAAKTLLEEVIENVDLSSDIMLDFLEEVKYLVETENLSEEELTERIKELARIARSEQEIIEL
B3: LC3A_28_1165 (protein)
chain: SELEESIEKALKEAKEAAAKGVPATIVIKVPGGITQEETEKVIKAMEEIAELLKDIPGAAIVIDVDSGVKQENLDKLMKKAEEIEKKYPNITVIIALDED
B4: LC3A_free_8_2522 (protein)
chain: SNKKLTEAAVEILDELEKKVVELLKSKGASRLEILEAELLIGSIIAEVISLVDKSPEEILKSIREGLERLVKELEKYKEEIKKLAEEALKKIEEKAKELE
B5: LC3A_free_46_2350 (protein)
chain: VKAEIEIDLLADDEETLKAAVEAIKEAIKEIAKKYNLEVEIEEEIEKLPDGSYYARINITLKGKDLEDVKAAVNELINKIEEIAKKYGVSAVISYEIKDI
B6: LC3A_28_720 (protein)
chain: GSLDASIEAAIAEAKAAAAAGEEAVIEITVPGDATEEDIEKVIKALEEIAEITKDLKRTHIIINVDGGVKQEHIDKLLDAAEEIEKKYPNVTVIFALDEE
B7: LC3A_28_995 (protein)
chain: SELEKQLEEALKEAKKAKEKGEPTVITIKIPGSANKEDIELVIKTLEEIAEILKDVKGSAIIIDIDGKLDEELKNLIIDKAEEIEEKYPNITVIIALDED
B8: LC3A_28_1173 (protein)
chain: SSVEENIEKALEEARKAKERKEPTVITINVPSGATQEEIDKVIEAMREIAELLKDIPGSAIIINVAGGVKQEHIDKLMEEAEEIEEKYPNVSVIIALDED
B9: LC3A_127_174 (protein)
chain: EKEKLLKEIEKLAEKILELLDKPDFDVEEIEKLLEKIIKLAKELLKLDPSAEPILETAEAAKKTLEQYKKAPEEQKEDLREHLSMLVEGLLIEVLSLLLK
B10: LC3A_127_202 (protein)
chain: SRRELLEEALELAEEALRALQRIPEEGEAALREARELLERLLELLAQLPELAEAAADAQQALAQLDQLPQLSPAEREEAIEHLLMIVDGIAIEVESALLR
B11: LC3A_28_1183 (protein)
chain: SALEENLKAAIAEAKKAAAAGEPAVITITVPGDADEEDIEKVIEALEEIAEILKDIKGSAIIIDLEKGVKQEHIDKLAEKADEIEKKYPNVTVILALEEE
B12: LC3A_free_8_2482 (protein)
chain: SSQETVDTVVKLLSKGEEELVKKAKELGKSRLDILELELLYGSVIATAISLSDASLEEIEKEIEEGLEDVLEKAKELGEEIAEIAEKHAKEVLEAIEKAK
B13: LC3A_132_287 (protein)
chain: GEEEKKRVVEKVKKIAEEAKKNIDNPEEVRKLLEELKKYLEEVKKTESPEVVRAAAETAAEELEELSELAEEKGKEDLALELDSLAIEAESWALEAEEAL
B14: LC3A_28_1125 (protein)
chain: SARREAWLAALAEAKERAERGEDVVLELTATGEDTEEDVDFLLEVLEEGAAYLSERGQSSILLDIDGSLPQELRDYLIDRADEIEARYPSVNIVIALEED
B15: LC3A_28_822 (protein)
chain: SEVEKRNEEALKEAKELAEKGEEKTITITVKSSDTPEDVELIAETIKKIAEILKPLKSATILIDLEEPISPESLKLLADTGEEVEKKYPNITVIIALPED
B16: LC3A_127_220 (protein)
chain: MLEELLELAEEAARLAWELVEDPSLDFEEALERIKELLKKALELAEKAGLPEEVLEDIKEALKLVEEAREADEEERKELLERAALLMDGVAIEVESLILK
B17: LC3A_3_1420 (protein)
chain: MEEELERALEELREAGWSEETLEALREVVEALLERGAEEEARRVLELVLENKDISSEDLLEVLREVLELLKTPGVSPEEAVERLEELLRIARNEQEIEEL
B18: LC3A_127_209 (protein)
chain: EKEKLLKEAEKLAQKALEALQKVPKEGEKALKEAQKLFEELIKVLEQLPELKEALEDAKQALEQLKQLPKLNEAEREEAIEHIEMIAEGILIDVELALLK
B19: LC3A_45_1941 (protein)
chain: MKKYRAVIDILFEGDDEELEELKEIAKKIAEKNGVELKIDEELNKKLNEQDKDEGYKYLRLELIGEDEEKVLDTADEIVDEMIKYTNGKVSAIISFEEIE
B20: LC3A_free_0_2125 (protein)
chain: HMVKGRVTIVAIEREPKHSAEEVREVLEKVAKEITEKYGAKVEVEVKTIDGRNVGTLTVEVEAESEEELLEIADEIEDLVEKAFKEAGIDAEIYTSVEFL
B21: LC3A_free_0_2111 (protein)
chain: KVTVVEVVAISDEPVSEEKREKLRKFAEELAEEISKKYNAETKVELKTVDGRTILTITIKSENLTIDEGIEIAREIADKIEEKFKELGIDATIYESVYVE
B22: LC3A_28_1196 (protein)
chain: SVADEVIEEIRRQAEEALREGDGAVIEVNIPSTLSHEGIKRIVAEIKREAERLKHLERVSIIINVESGVSQEDIDLIADTGEEIEKKYPNVTVIIALDED
B23: LC3A_17_553 (protein)
chain: EEALERALEELRKRVREILDSAPWVSEETRERVVRLAEEALREAAEADETEALGILLELQDEVFDLLEEAGAPSEDEALLVAGSVQDAAEEALRRIREAR
B24: LC3A_147_473 (protein)
chain: VKTIVDIDILTKDAEEEVIERIKEIVEELKKEGYKVELKIETEKLEDGTTFIDVTITIYAETKEEAEEAANKVIDKLEEMEEELKDKILGSIISVDIEEL
B25: LC3A_28_1004 (protein)
chain: SELDKNLKEAIEKAKKAAEEKKPVVITIKVPGTANEEDIERVIKAIEEIAEILKDIPGSAIVVDIDGTLKQEFRDRLIDKAEEVEKKYPNITVIIALDED
B26: LC3A_28_1185 (protein)
chain: SELEENLEKALEEAREAAERGEPAVITIKVPGDANEEDIEKVIKTLEEIAEILKDIPGSAIIIDLEKGVKQEHIDKLAEKGEEIEEKYPNVTVILALEEE
B27: LC3A_28_849 (protein)
chain: SAIDAELAAQKAKAEAAKAAGEEVLLEVTVTSETTLEDAEKISEGLEEIAEAAKDLPSLDIVVNFTEPVDQEVLDKIAETGDRLEKRYPHVNVVLALPED
B28: LC3A_28_783 (protein)
chain: SELEKNIEAAIKEAKAAKAAGKSQVITIKVPGTATEEDIEKVIAGLKEIAEILKGVKDQAIIIDVDADVAPEHIQKLADEADRIEKEYPNVTVIIALEEK
B29: LC3A_28_971 (protein)
chain: SELDENLEKALAEARAAAEAGEPPVIVLKVPGSDDPEDTEKVIKTLEEIAEILSGVEGAAIIIDIDGGVSPEHQNKIIDKAEEIEEKYPNVTVIIALEER

The full ranking holds about 2,300 sequences; the median of “median log2 fold change of GCK-ALFA target abundance (FLAG IP / Myc IP barcode read proportion)” is about 0.095, and the lowest 2% start at about -0.47. The list shows a part of the results.

This test deals with MAP1LC3A, Q9H492. The experiment in a line: median log2 fold change of GCK-ALFA target abundance (FLAG IP / Myc IP barcode read proportion) (log2 ratio); each designed protein is fused to an ALFA-tag nanobody in HEK293 cells to bring the named protein to FLAG-tagged glucokinase (GCK); Myc marks an untargeted standard; higher = target protein stabilised (more abundant). The conditions noted are these: target protein: 3xFLAG-MCP-GCK-ALFA reporter; HEK293 landing pad (RPLP). In short, it runs like this:
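Sequencing of reverse-transcribed, amplified circular RNA barcodes from anti-FLAG and anti-Myc immunoprecipitates provided the readout for an ALFA-nanobody-fused binder library recombined into HEK293 landing-pad cells. Those cells were induced with 2 μg mL^−1 doxycycline, transfected with a plasmid expressing a FLAG-tagged target and a Myc-tagged standard, and lysed after 48 h. Target abundance is the per-binder median log2 ratio of FLAG to Myc barcode read proportions. Only barcodes at a proportion of ≥10^−7 in both replicates and binders with ≥3 barcodes per replicate were kept, with a 10^−6 pseudocount added before the two replicates were pooled.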
B1: the “median log2 fold change” value is -0.163.

On to B2, for which the “median log2 fold change” value worked out at 0.144.

With B3, the “median log2 fold change” value was determined as 0.448.

As for B4, the “median log2 fold change” value came to 0.213.

Regarding B5, the “median log2 fold change” value turned out to be 0.165.

Regarding B6, the “median log2 fold change” value was -0.195.

For the molecule B7, the “median log2 fold change” value was 0.0283.

For B8, the “median log2 fold change” value is 0.17.

B9: the “median log2 fold change” value turned out to be 0.238.

B10: the “median log2 fold change” value was found to be 0.0531.

For B11, the “median log2 fold change” value was -0.0581.

As to B12, the “median log2 fold change” value is 0.146.

Turning to B13, the “median log2 fold change” value turned out to be 0.0725.

In the case of B14, the “median log2 fold change” value was -0.312.

For the molecule B15, the “median log2 fold change” value stood at 0.274.

Regarding B16, the “median log2 fold change” value was -0.0623.

As to B17, the “median log2 fold change” value was 0.3.

Regarding B18, the “median log2 fold change” value was determined as 0.145.

With B19, the “median log2 fold change” value is -0.0992.

Consider B20, for which the “median log2 fold change” value stood at 0.025.

For B21, the “median log2 fold change” value was -0.0422.

For the molecule B22, the “median log2 fold change” value turned out to be 0.291.

In the case of B23, the “median log2 fold change” value is 0.0433.

For B24, the “median log2 fold change” value was -0.0233.

On to B25, for which the “median log2 fold change” value is 0.152.

Consider B26, for which the “median log2 fold change” value came out at 0.0727.

On to B27, for which the “median log2 fold change” value was -0.0347.

As for B28, the “median log2 fold change” value turned out to be 0.271.

B29: the “median log2 fold change” value is -0.0123.
